Measured values from the supplement of paper PMC7826260.
This is one part of the list. Viral Rep nickase domains cut single-stranded DNA in vitro (3 µM enzyme, 1 h, 37 °C); shown is the middle of each 90-letter strand. The score is log2 (uncut reads / reads without enzyme); more negative means more cut, near 0 not cut, and no call is made. Because reads are shares of a total, they shift together; values above 0 arise when much of the pool is cut.

Legend:
Test in all cases: uncleaved DNA left, log2 of reads against the no-enzyme library (log2 ratio); higher = less cleavage (more negative = more Rep cleavage of the k-mer); sequences stand for … in CTCGTCCG…ACCGGAGA
[1] = tested on: T1, Rep nickase domain of Muscovy duck circovirus
T1 sequence (residues 1-111, tag not shown): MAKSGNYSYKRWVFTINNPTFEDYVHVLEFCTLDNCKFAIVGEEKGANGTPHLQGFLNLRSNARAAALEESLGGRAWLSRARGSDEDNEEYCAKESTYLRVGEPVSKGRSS
Protocol: (§1)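 A pool of 90-nt single-stranded DNAs with seven random bases just before the constant AC of the nick site (name = the seven bases) was cut by 3 µM recombinant His6-SUMO-tagged Rep nickase domain (300 nM DNA, 50 mM HEPES pH 8.0, 50 mM NaCl, 1 mM MnCl2, 1 h, 37 °C, three replicates). Uncut DNA was amplified and sequenced.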

[2] = tested on: T2, Rep nickase domain of banana bunchy top virus
T2 sequence (residues 1-94, tag not shown): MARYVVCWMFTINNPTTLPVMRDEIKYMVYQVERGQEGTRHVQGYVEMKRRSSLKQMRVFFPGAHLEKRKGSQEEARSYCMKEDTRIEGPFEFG
Protocol: as §1

[3] = tested on: T3, Rep nickase domain of cabbage leaf curl virus
T3 sequence (residues 1-116, tag not shown): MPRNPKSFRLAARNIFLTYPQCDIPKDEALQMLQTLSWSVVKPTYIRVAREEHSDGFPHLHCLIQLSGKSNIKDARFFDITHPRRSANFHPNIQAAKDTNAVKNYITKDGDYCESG
Protocol: as §1

[4] = tested on: T4, Rep nickase domain of chickpea chlorotic dwarf virus
T4 sequence (residues 1-124, tag not shown): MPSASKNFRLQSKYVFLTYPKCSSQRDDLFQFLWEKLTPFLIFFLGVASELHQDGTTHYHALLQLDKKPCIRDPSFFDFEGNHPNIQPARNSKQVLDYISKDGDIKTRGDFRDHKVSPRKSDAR
Protocol: as §1

[5] = tested on: T5, Rep nickase domain of faba bean necrotic yellows virus
T5 sequence (residues 1-98, tag not shown): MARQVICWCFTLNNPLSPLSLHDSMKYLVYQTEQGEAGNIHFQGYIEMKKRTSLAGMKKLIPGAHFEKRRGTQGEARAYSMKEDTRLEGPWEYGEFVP
Protocol: as §1

[6] = tested on: T6, Rep nickase domain of maize striate mosaic virus
T6 sequence (residues 1-117, tag not shown): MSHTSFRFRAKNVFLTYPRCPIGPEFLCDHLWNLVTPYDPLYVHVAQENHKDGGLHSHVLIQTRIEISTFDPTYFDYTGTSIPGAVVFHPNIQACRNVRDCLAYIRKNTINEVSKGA
Protocol: as §1

[7] = tested on: T7, Rep nickase domain of porcine circovirus 2
T7 sequence (residues 2-116, tag not shown): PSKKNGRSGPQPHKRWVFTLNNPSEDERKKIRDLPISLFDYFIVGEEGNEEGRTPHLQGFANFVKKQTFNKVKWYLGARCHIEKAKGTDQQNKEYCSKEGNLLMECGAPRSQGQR
Protocol: as §1

[8] = tested on: T8, Rep nickase domain of tomato golden mosaic virus
T8 sequence (residues 1-124, tag not shown): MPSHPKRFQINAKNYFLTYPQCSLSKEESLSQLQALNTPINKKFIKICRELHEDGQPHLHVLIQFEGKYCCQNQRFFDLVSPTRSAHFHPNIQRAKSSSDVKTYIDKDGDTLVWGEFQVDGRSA
Protocol: as §1

[9] = tested on: T9, Rep nickase domain of tomato yellow leaf curl virus
T9 sequence (residues 1-136, tag not shown): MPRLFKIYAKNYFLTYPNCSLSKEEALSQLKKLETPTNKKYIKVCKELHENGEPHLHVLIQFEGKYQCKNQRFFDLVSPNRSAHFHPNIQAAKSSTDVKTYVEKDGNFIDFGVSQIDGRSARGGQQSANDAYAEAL
Protocol: as §1

[10] = tested on: T10, Rep nickase domain of wheat dwarf virus
T10 sequence (residues 1-137, tag not shown): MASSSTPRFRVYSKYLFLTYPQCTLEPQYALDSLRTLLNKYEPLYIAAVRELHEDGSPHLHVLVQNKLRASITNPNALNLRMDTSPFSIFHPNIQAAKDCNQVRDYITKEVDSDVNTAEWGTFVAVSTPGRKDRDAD
Protocol: as §1

| Sequence | uncleaved DNA left (log2) [1] | uncleaved DNA left (log2) [2] | uncleaved DNA left (log2) [3] | uncleaved DNA left (log2) [4] | uncleaved DNA left (log2) [5] | uncleaved DNA left (log2) [6] | uncleaved DNA left (log2) [7] | uncleaved DNA left (log2) [8] | uncleaved DNA left (log2) [9] | uncleaved DNA left (log2) [10] |
| --- | --- | --- | --- | --- | --- | --- | --- | --- | --- | --- |
| GTAGGTG | 0.0388 | -0.0229 | -0.24 | -0.195 | -0.124 | -0.501 | -0.0245 | -0.00836 | 0.0227 | -0.168 |
| TGAGTCA | 0.0425 | 0.0672 | 0.179 | -0.291 | 0.0541 | 0.0923 | -0.0442 | 0.0177 | 0.0103 | 0.0862 |
| CCAGTAG | 0.139 | -0.0295 | -0.595 | -0.375 | 0.146 | -0.961 | 0.329 | 0.113 | 0.0635 | 0.103 |
| TCTGTAG | -0.0121 | -0.0958 | -0.692 | -0.862 | 0.0167 | -1.16 | 0.102 | -0.0248 | 0.0423 | -0.156 |
| ATTAGGA | 0.015 | -0.0682 | 0.12 | 0.425 | -0.0175 | -0.249 | 0.0838 | 0.00923 | -0.151 | -0.0685 |
| CTGACGG | -0.0505 | -0.0486 | 0.122 | 0.773 | -0.1 | 0.895 | 0.0276 | 0.0135 | -0.158 | -0.0817 |
| GTGCTGG | 0.031 | -0.0216 | 0.0995 | 0.43 | 0.0394 | 0.0846 | 0.0435 | 0.0943 | -0.0828 | -0.0384 |
| TGAACCC | 0.0692 | 0.0694 | 0.426 | 0.428 | 0.142 | 0.736 | -0.38 | -0.0437 | 0.12 | 0.2 |
| CAATGTA | -0.854 | -0.0636 | -2.09 | -2.4 | -0.0165 | -1.17 | -2.65 | -0.442 | 0.0215 | -0.492 |
| ACTCTCC | -0.121 | -0.103 | -0.404 | 0.153 | -0.069 | 1.13 | 0.0293 | -0.0282 | -0.181 | -0.0646 |
| ACTTGGA | -0.056 | 0.0235 | -0.273 | -0.433 | 0.0348 | -0.912 | 0.0719 | 0.000847 | 0.0019 | -0.04 |
| AAGGACT | 0.143 | 0.0205 | 0.0501 | 1.3 | -0.0598 | 1.58 | 0.0811 | 0.0404 | -0.0593 | 0.0829 |
| TTGCATT | 0.0497 | -0.166 | -0.525 | -1.38 | -0.212 | -1.01 | -0.404 | -0.208 | 0.035 | -0.0467 |
| TACCTCA | -0.127 | -0.0371 | -0.223 | -2.38 | -0.174 | -0.259 | -0.742 | -0.0721 | 0.00587 | 0.00587 |
| CAACACT | -0.0765 | -0.112 | -2 | -3.08 | -0.0627 | -1.17 | -0.421 | -0.23 | -0.0171 | -0.509 |
| GTCGCCT | 0.0825 | -0.0622 | 0.36 | 0.497 | 0.116 | 1.36 | 0.0874 | 0.0448 | -0.0167 | -0.000849 |

| Sequence | uncleaved DNA left (log2) [1] | uncleaved DNA left (log2) [2] | uncleaved DNA left (log2) [3] | uncleaved DNA left (log2) [4] | uncleaved DNA left (log2) [5] | uncleaved DNA left (log2) [6] | uncleaved DNA left (log2) [7] | uncleaved DNA left (log2) [8] | uncleaved DNA left (log2) [9] | uncleaved DNA left (log2) [10] |
| --- | --- | --- | --- | --- | --- | --- | --- | --- | --- | --- |
| CAGACAA | -0.0348 | 0.0226 | 0.192 | 0.524 | -0.0548 | 0.318 | -0.179 | -0.0688 | -0.0836 | 0.0514 |
| ATAGCCA | -0.151 | -0.0397 | -0.228 | -1.24 | 0.0313 | -0.913 | -0.127 | -0.0132 | -0.0595 | -0.103 |
| TTCTCTT | -2.71 | -0.249 | -0.239 | -2.09 | 0.0131 | -0.282 | -3.02 | 0.00959 | -0.0418 | -0.0754 |
| GTACAGG | -0.0827 | -0.0667 | 0.417 | 1.15 | 0.0236 | 1.49 | 0.146 | 0.0585 | 0.00687 | 0.0483 |
| TGGAGTA | 0.09 | 0.0808 | 0.256 | 0.266 | -0.051 | 0.646 | -0.0504 | -0.0249 | 0.0791 | 0.0587 |
| GCACCAG | -0.0696 | 0.0218 | -0.528 | -0.375 | -0.00727 | -0.811 | 0.0552 | -0.0383 | 0.0246 | -0.12 |
| GGAAGCG | 0.104 | 0.0654 | -0.694 | 0.512 | 0.124 | -0.422 | 0.169 | -0.0373 | 0.0494 | -0.00371 |
| ATCGTCG | -0.0812 | 0.0611 | -0.893 | -0.101 | 0.0144 | -1.1 | 0.0729 | -0.246 | -0.00963 | -0.128 |
| AAGCGAG | -0.0208 | -0.0213 | 0.00443 | 0.391 | -0.0102 | -0.0924 | 0.181 | 0.101 | 0.0587 | 0.0898 |
| CCCTCGA | 0.0383 | -0.00936 | -0.494 | -0.82 | 0.0521 | -1.13 | -0.0865 | -0.0394 | -0.127 | -0.128 |
| ATGGCTC | -0.0198 | -0.0676 | -0.0618 | -0.595 | 0.0493 | -0.242 | -0.138 | -0.0838 | -0.135 | -0.277 |
| TGAGGCA | -0.0429 | -0.0335 | 0.163 | 0.303 | -0.051 | 0.191 | -0.0879 | -0.0365 | -0.145 | -0.0557 |
| AAAACTT | -0.447 | -0.361 | -3.26 | -2.96 | 0.11 | -1.36 | -3.13 | -1.31 | 0.0931 | -2.45 |
| GGACATG | 0.0195 | -0.0753 | 0.813 | 1.87 | 0.0734 | 2.18 | 0.164 | -0.11 | -0.0133 | 0.105 |
| TTACGGA | 0.0738 | -0.0607 | 0.139 | 0.144 | 0.0545 | -0.00918 | 0.0653 | 0.105 | 0.0244 | 0.0471 |
